The list shows a part of the results.
Key:
Test in all cases: glycan array binding signal (z-score within array); higher = stronger binding
Conditions in all cases: glycan notation: IUPAC condensed, linker removed
[1] = molecular target: Neu5Ac(a2-6)Gal(b1-4)GlcNAc(b1-2)Man(a1-3)[Man(a1-6)]Man(b1-4)GlcNAc(b1-4)GlcNAc
Outline: (§1)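 Negative Z-scores can be read as non-binding. The Z-score is calculated within each array and then averaged across arrays of one protein sequence at different concentrations or buffers and across linkers. Arrays, 3228 in all, were curated from the Consortium for Functional Glycomics database and kept only where the protein sequence was available.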

[2] = molecular target: Neu5Ac(a2-6)Gal(b1-4)GlcNAc(b1-2)Man(a1-3)[Neu5Ac(a2-3)Gal(b1-4)GlcNAc(b1-2)Man(a1-6)]Man(b1-4)GlcNAc(b1-4)GlcNAc
Outline: as §1

[3] = molecular target: Neu5Ac(a2-6)Gal(b1-4)GlcNAc(b1-2)Man(a1-3)[Neu5Ac(a2-6)Gal(b1-4)GlcNAc(b1-2)Man(a1-6)]Man(b1-4)GlcNAc(b1-4)GlcNAc
Outline: as §1

[4] = molecular target: Neu5Ac(a2-6)Gal(b1-4)GlcNAc(b1-2)Man(a1-3)[Neu5Ac(a2-6)Gal(b1-4)GlcNAc(b1-2)Man(a1-6)]Man(b1-4)GlcNAc(b1-4)[Fuc(a1-6)]GlcNAc
Outline: as §1

[5] = molecular target: Neu5Ac(a2-6)Gal(b1-4)GlcNAc(b1-2)Man(a1-6)Man(b1-4)GlcNAc(b1-4)GlcNAc
Outline: as §1

[6] = molecular target: Neu5Ac(a2-6)Gal(b1-4)GlcNAc(b1-2)Man(a1-6)[Gal(b1-4)GlcNAc(b1-2)Man(a1-3)]Man(b1-4)GlcNAc(b1-4)GlcNAc
Outline: as §1

[7] = molecular target: Neu5Ac(a2-6)Gal(b1-4)GlcNAc(b1-2)Man(a1-6)[GlcNAc(b1-2)Man(a1-3)]Man(b1-4)GlcNAc(b1-4)GlcNAc
Outline: as §1

[8] = molecular target: Neu5Ac(a2-6)Gal(b1-4)GlcNAc(b1-2)Man(a1-6)[Man(a1-3)]Man(b1-4)GlcNAc(b1-4)GlcNAc
Outline: as §1

[9] = molecular target: Neu5Ac(a2-6)Gal(b1-4)GlcNAc(b1-2)[Neu5Ac(a2-6)Gal(b1-4)GlcNAc(b1-4)]Man(a1-3)[GlcNAc(b1-4)][Neu5Ac(a2-6)Gal(b1-4)GlcNAc(b1-2)[Neu5Ac(a2-6)Gal(b1-4)GlcNAc(b1-6)]Man(a1-6)]Man(b1-4)GlcNAc(b1-4)GlcNAc
Outline: as §1

[10] = molecular target: Neu5Ac(a2-6)Gal(b1-4)GlcNAc(b1-2)[Neu5Ac(a2-6)Gal(b1-4)GlcNAc(b1-4)]Man(a1-3)[GlcNAc(b1-4)][Neu5Ac(a2-6)Gal(b1-4)GlcNAc(b1-4)Man(a1-6)]Man(b1-4)GlcNAc(b1-4)GlcNAc
Outline: as §1

[11] = molecular target: Neu5Ac(a2-6)Gal(b1-4)GlcNAc(b1-2)[Neu5Ac(a2-6)Gal(b1-4)GlcNAc(b1-6)]Man(a1-6)[Neu5Ac(a2-6)Gal(b1-4)GlcNAc(b1-2)Man(a1-3)][GlcNAc(b1-4)]Man(b1-4)GlcNAc(b1-4)GlcNAc
Outline: as §1

[12] = molecular target: Neu5Ac(a2-6)Gal(b1-4)GlcNAc(b1-3)Gal(b1-3)GlcNAc
Outline: as §1

[13] = molecular target: Neu5Ac(a2-6)Gal(b1-4)GlcNAc(b1-3)Gal(b1-4)GlcNAc
Outline: as §1

[14] = molecular target: Neu5Ac(a2-6)Gal(b1-4)GlcNAc(b1-3)Gal(b1-4)GlcNAc(b1-2)Man(a1-3)[Neu5Ac(a2-6)Gal(b1-4)GlcNAc(b1-3)Gal(b1-4)GlcNAc(b1-2)Man(a1-6)]GalNAc
Outline: as §1

[15] = molecular target: Neu5Ac(a2-6)Gal(b1-4)GlcNAc(b1-3)Gal(b1-4)GlcNAc(b1-3)Gal(b1-4)GlcNAc
Outline: as §1

[16] = molecular target: Neu5Ac(a2-6)Gal(b1-4)GlcNAc(b1-3)Gal(b1-4)GlcNAc(b1-3)Gal(b1-4)GlcNAc(b1-2)Man(a1-3)[Neu5Ac(a2-6)Gal(b1-4)GlcNAc(b1-3)Gal(b1-4)GlcNAc(b1-3)Gal(b1-4)GlcNAc(b1-2)Man(a1-6)]GalNAc
Outline: as §1

[17] = molecular target: Neu5Ac(a2-6)Gal(b1-4)GlcNAc(b1-3)Gal(b1-4)GlcNAc(b1-3)GalNAc
Outline: as §1

[18] = molecular target: Neu5Ac(a2-6)Gal(b1-4)GlcNAc(b1-3)Gal(b1-4)GlcNAc(b1-3)[Neu5Ac(a2-6)Gal(b1-4)GlcNAc(b1-3)Gal(b1-4)GlcNAc(b1-6)]GalNAc
Outline: as §1

[19] = molecular target: Neu5Ac(a2-6)Gal(b1-4)GlcNAc(b1-3)Gal(b1-4)GlcNAc(b1-6)[Gal(b1-3)]GalNAc
Outline: as §1

[20] = molecular target: Neu5Ac(a2-6)Gal(b1-4)GlcNAc(b1-3)Gal(b1-4)[Fuc(a1-3)]GlcNAc(b1-3)Gal(b1-4)[Fuc(a1-3)]GlcNAc
Outline: as §1

[21] = molecular target: Neu5Ac(a2-6)Gal(b1-4)GlcNAc(b1-3)GalNAc
Outline: as §1

[22] = molecular target: Neu5Ac(a2-6)Gal(b1-4)GlcNAc(b1-3)[Neu5Ac(a2-6)Gal(b1-4)GlcNAc(b1-6)]GalNAc
Outline: as §1

[23] = molecular target: Neu5Ac(a2-6)Gal(b1-4)GlcNAc(b1-6)GalNAc
Outline: as §1

[24] = molecular target: Neu5Ac(a2-6)Gal(b1-4)GlcNAc(b1-6)[Gal(b1-3)GlcNAc(b1-3)]Gal(b1-4)Glc
Outline: as §1

[25] = molecular target: Neu5Ac(a2-6)Gal(b1-4)GlcNAc(b1-6)[Gal(b1-3)]GalNAc
Outline: as §1

[26] = molecular target: Neu5Ac(a2-6)Gal(b1-4)GlcNAc6S
Outline: as §1

Neu5Ac(a2-6)GalNAc = molecular target: Neu5Ac(a2-6)GalNAc
Outline: as §1

[27] = molecular target: Neu5Ac(a2-6)GalNAc(b1-4)GlcNAc
Outline: as §1

[28] = molecular target: Neu5Ac(a2-6)GalNAc(b1-4)GlcNAc6S
Outline: as §1

[29] = molecular target: Neu5Ac(a2-6)GlcNAc(b1-4)GlcNAc
Outline: as §1

[30] = molecular target: Neu5Ac(a2-6)GlcNAc(b1-4)GlcNAc(b1-4)GlcNAc
Outline: as §1

B1: OGAA (protein)
chain: MVQKESQATLEERESELSSNPAASAGASLEPPAAPAPGEDNPAGAGGAAVAGAAGGARRFLCGVVEGFYGRPWVMEQRKELFRRLQKWELNTYLYAPKDDYKHRMFWREMYSVEEAEQLMTLISAAREYEIEFIYAISPGLDITFSNPKEVSTLKRKLDQVSQFGCRSFALLFADIDHNMCAADKEVFSSFAHAQVSITNEIYQYLGEPETFLFCPTEYCGTFCYPNVSQSPYLRTVGEKLLPGIEVLWTGPKVVSKEIPVESIEEVSKIIKRAPVIWDNIHANDYDQKRLFLGPYKGRSTELIPRLKGVLTNPNCEFEANYVAIHTLATWYKSNMNGVRKDVVMTDSEDSTVSIQIKLENEGSDEDIETDVLYSPQMALKLALTEWLQEFGVPHQY
[1]
  glycan array binding signal (z-score): -0.039
[2]
  glycan array binding signal (z-score): -0.104
[3]
  glycan array binding signal (z-score): -0.079
[4]
  glycan array binding signal (z-score): -0.088
[5]
  glycan array binding signal (z-score): -0.079
[6]
  glycan array binding signal (z-score): -0.059
[7]
  glycan array binding signal (z-score): -0.092
[8]
  glycan array binding signal (z-score): -0.097
[9]
  glycan array binding signal (z-score): -0.006
[10]
  glycan array binding signal (z-score): -0.01
[11]
  glycan array binding signal (z-score): -0.01
[12]
  glycan array binding signal (z-score): -0.112
[13]
  glycan array binding signal (z-score): -0.084
[14]
  glycan array binding signal (z-score): -0.081
[15]
  glycan array binding signal (z-score): -0.04
[16]
  glycan array binding signal (z-score): -0.053
[17]
  glycan array binding signal (z-score): -0.094
[18]
  glycan array binding signal (z-score): -0.066
[19]
  glycan array binding signal (z-score): -0.107
[20]
  glycan array binding signal (z-score): -0.066
[21]
  glycan array binding signal (z-score): -0.036
[22]
  glycan array binding signal (z-score): -0.081
[23]
  glycan array binding signal (z-score): -0.101
[24]
  glycan array binding signal (z-score): -0.079
[25]
  glycan array binding signal (z-score): -0.125
[26]
  glycan array binding signal (z-score): -0.005
Neu5Ac(a2-6)GalNAc
  glycan array binding signal (z-score): -0.147
[27]
  glycan array binding signal (z-score): -0.074
[28]
  glycan array binding signal (z-score): -0.012
[29]
  glycan array binding signal (z-score): -0.12
[30]
  glycan array binding signal (z-score): -0.021

Reference: the supplement of paper PMC8728848
